For 26 molecules, cytotoxicity call and growth inhibition call results are on record in the antibiotic and cytotoxicity screens of Wong et al. (2023).

One assay concerns HSkMC. The experiment in a line: cytotoxicity call (relative viability < 0.9). Conditions: 10 µM.
The test system of the next assay is HepG2. The experiment in a line: cytotoxicity call (relative viability < 0.9). The conditions noted are these: 10 µM.
Another assay concerns S. aureus RN4220. Description: growth inhibition call (relative growth <= 0.2). The conditions noted are these: 50 µM.

The other results are listed elsewhere or left out.

`Cc1cc(NC2CCCCC2)ncn1`: the cytotoxicity call with HSkMC and with HepG2 was “inactive” each time. For the same molecule, the growth inhibition call in the assay with S. aureus RN4220 was “inactive”.
With `COc1ccccc1-c1cnc2c(c1)C(=O)N([C@H](C)CO)C[C@H](C)[C@H](CN(C)C(=O)c1cccnc1)O2`, the cytotoxicity call in the assay on HSkMC and in the assay on HepG2 was “inactive” each time. Further, the growth inhibition call with S. aureus RN4220 was “inactive”.
For `CCCNC(=O)c1cc2c(c(-c3cccc(-c4cc5ccccc5o4)c3)n1)[C@@H](CCO)N(C(=O)NC(C)C)C2`, the cytotoxicity call with HSkMC and in the assay with HepG2 was “inactive” each time. Besides, the growth inhibition call in the assay on S. aureus RN4220 is “inactive”.
With `C[C@@H]1CCCCO[C@H](CN(C)Cc2ccc3c(c2)OCO3)[C@@H](C)CN([C@H](C)CO)C(=O)c2cc(NC(=O)c3ccccc3)ccc2O1`, the cytotoxicity call in the assay on HSkMC and in the assay on HepG2 was “inactive” throughout. Moreover, the growth inhibition call in the assay with S. aureus RN4220 is “inactive”.
With `COCC(=O)Nc1ccc2c(c1)C(=O)N(C)C[C@H](OC)[C@@H](C)CN(C(=O)c1ccccc1F)[C@@H](C)CO2`, the cytotoxicity call in the assay with HSkMC and in the assay with HepG2 was “inactive” each time. Moreover, the growth inhibition call with S. aureus RN4220 was “inactive”.
For `C[C@H](CO)N1C[C@H](C)[C@H](CN(C)Cc2ccc(-c3ccccc3)cc2)Oc2ccc(NC(=O)Cn3cnnn3)cc2CC1=O`, the cytotoxicity call with HSkMC and with HepG2 was “inactive” in each case. In the assay on S. aureus RN4220, the growth inhibition call is “inactive”.
`C[C@@H]1CCCCO[C@H](CN(C)C(=O)c2ccccc2)[C@H](C)CN([C@@H](C)CO)C(=O)c2cc(NS(=O)(=O)c3ccccc3)ccc2O1`: the cytotoxicity call with HSkMC and with HepG2 was “inactive” each time. Besides, in the assay with S. aureus RN4220, the growth inhibition call was “inactive”.
As for `C#CCN1C(=O)N(C(=O)c2ccccc2)[C@@H]2c3ccccc3O[C@@]1(COCc1ccc(OC)cc1)[C@@H]2CO[Si](C)(C)C(C)(C)C`, the cytotoxicity call in the assay on HSkMC and in the assay on HepG2 was “inactive” each time. Moreover, the growth inhibition call in the assay on S. aureus RN4220 is “inactive”.
`Cc1noc(C)c1NC(=O)N(C)C[C@H]1OCCCC[C@@H](C)Oc2ccc(NS(=O)(=O)c3ccc(F)cc3)cc2C(=O)N([C@@H](C)CO)C[C@@H]1C`: the cytotoxicity call in the assay with HSkMC and in the assay with HepG2 was “inactive” throughout. Also, the growth inhibition call in the assay with S. aureus RN4220 was “inactive”.
For `Cc1noc(C)c1NC(=O)Nc1ccc2c(c1)C(=O)N([C@H](C)CO)C[C@H](C)[C@@H](CN(C)S(C)(=O)=O)O2`, the cytotoxicity call in the assay on HSkMC and in the assay on HepG2 was “inactive” in each case. The growth inhibition call in the assay on S. aureus RN4220 was “inactive”.
On to `C[C@@H]1CN([C@@H](C)CO)C(=O)c2cccc(NS(=O)(=O)c3cn(C)cn3)c2O[C@H]1CN(C)CC1CCCCC1`, for which the cytotoxicity call with HSkMC and with HepG2 was “inactive” throughout. In the assay on S. aureus RN4220, the growth inhibition call is “inactive”.
Take `O=C(C[C@H]1CC[C@H]2[C@@H](COC[C@H](O)CN2C(=O)c2ccc3c(c2)OCO3)O1)NCCN1CCCC1`: the cytotoxicity call in the assay on HSkMC and in the assay on HepG2 was “inactive” in each case. In addition, in the assay on S. aureus RN4220, the growth inhibition call was “inactive”.
With `C[C@@H]1CN([C@H](C)CO)C(=O)c2cc(NC(=O)C3CCCCC3)ccc2O[C@@H](C)CCCCO[C@H]1CN(C)S(=O)(=O)c1ccccc1`, the cytotoxicity call in the assay on HSkMC and in the assay with HepG2 was “inactive” in each case. Moreover, the growth inhibition call with S. aureus RN4220 is “inactive”.
Consider `C[C@@H]1CN([C@H](C)CO)S(=O)(=O)c2ccc(C#Cc3cccnc3)cc2O[C@H]1CN(C)C(=O)CN(C)C`, for which the cytotoxicity call in the assay on HSkMC and in the assay with HepG2 was “inactive” in each case. Further, the growth inhibition call with S. aureus RN4220 was “inactive”.
`C[C@@H]1CN([C@@H](C)CO)C(=O)c2cc(NS(=O)(=O)c3ccc(F)cc3)ccc2O[C@@H](C)CCCCO[C@@H]1CN(C)Cc1ccc(C(F)(F)F)cc1`: the cytotoxicity call in the assay on HSkMC and in the assay on HepG2 was “inactive” each time. For the same molecule, the growth inhibition call with S. aureus RN4220 is “inactive”.
For `C[C@@H]1CN([C@H](C)CO)C(=O)c2cc(NC(=O)Nc3ccc(C(F)(F)F)cc3)ccc2O[C@@H](C)CCCCO[C@H]1CN(C)Cc1ccc(C(F)(F)F)cc1`, the cytotoxicity call in the assay on HSkMC and in the assay with HepG2 was “active” in each case. The growth inhibition call in the assay on S. aureus RN4220 is “inactive”.
For `CC=CC(=O)N(CC)c1ccccc1C`, the cytotoxicity call with HSkMC and in the assay with HepG2 was “inactive” each time. The growth inhibition call in the assay with S. aureus RN4220 was “inactive”.
`C[C@H](CO)N1C[C@H](C)[C@@H](CN(C)S(=O)(=O)c2ccc(F)cc2)Oc2ncc(-c3ccncc3)cc2C1=O`: the cytotoxicity call with HSkMC and with HepG2 was “inactive” throughout. In the assay on S. aureus RN4220, the growth inhibition call was “inactive”.
With `Cc1ccc(S(=O)(=O)N(C)C[C@H]2Oc3c(NS(=O)(=O)c4ccc(F)cc4)cccc3C(=O)N([C@H](C)CO)C[C@H]2C)cc1`, the cytotoxicity call with HSkMC and in the assay with HepG2 was “inactive” throughout. Further, the growth inhibition call in the assay on S. aureus RN4220 is “inactive”.
For the molecule `C[C@@H]1CCCCO[C@@H](CN(C)Cc2ccccc2)[C@@H](C)CN([C@@H](C)CO)C(=O)c2cc(NC(=O)NC3CCCCC3)ccc2O1`, in the assay with HSkMC, the cytotoxicity call was “inactive”. Moreover, the cytotoxicity call in the assay on HepG2 is “active”. The growth inhibition call in the assay with S. aureus RN4220 was “inactive”.
In the case of `C[C@H](CO)N1C[C@H](C)[C@@H](CN(C)C(=O)c2ccccc2)OCCCC[C@H](C)Oc2ccc(NC(=O)C3CCCCC3)cc2C1=O`, the cytotoxicity call in the assay on HSkMC and with HepG2 was “inactive” in each case. In addition, in the assay with S. aureus RN4220, the growth inhibition call was “inactive”.
For the molecule `CCCNC(=O)[C@H]1[C@H](CO)[C@H]2Cn3c(ccc(-c4ccccc4OC)c3=O)[C@H]2N1S(C)(=O)=O`, the cytotoxicity call in the assay with HSkMC and with HepG2 was “inactive” in each case. Moreover, in the assay on S. aureus RN4220, the growth inhibition call was “inactive”.
`COc1ccc(S(=O)(=O)N(C)C[C@@H]2Oc3ccc(NC(=O)CCN4CCOCC4)cc3CC(=O)N([C@H](C)CO)C[C@@H]2C)cc1`: the cytotoxicity call in the assay on HSkMC (human skeletal muscle cells) and in the assay with HepG2 was “inactive” in each case. Also, the growth inhibition call with S. aureus RN4220 is “inactive”.
As for `CCN(CC)CCNC(=O)c1c(C)[nH]c(/C=C2/C(=O)Nc3ccc(-c4csc(-c5ccccc5)n4)cc32)c1C`, the cytotoxicity call in the assay with HSkMC and in the assay on HepG2 was “active” each time. Further, the growth inhibition call with S. aureus RN4220 is “inactive”.
As to `Cc1ccc(-c2ccc3c(c2)O[C@H](CN(C)Cc2cncnc2)[C@@H](C)CN([C@@H](C)CO)S3(=O)=O)cc1`, the cytotoxicity call in the assay with HSkMC and in the assay on HepG2 was “inactive” each time. Besides, the growth inhibition call in the assay on S. aureus RN4220 is “inactive”.
With `O=C(N[C@H]1C=C[C@H](CC(=O)N2CCOCC2)O[C@@H]1CO)c1ccccn1`, the cytotoxicity call in the assay with HSkMC and in the assay with HepG2 was “inactive” each time. For the same molecule, in the assay on S. aureus RN4220, the growth inhibition call was “inactive”.
